Reference: the supplement of paper PMC8728848
This is one part of the list.

Assays:
Assay in all cases: glycan array binding signal (z-score within array); higher = stronger binding
Settings in all cases: glycan notation: IUPAC condensed, linker removed
[1] = biological target: Gal(b1-4)GlcNAc(b1-3)Gal(b1-4)GlcNAc
How it was run: (§1)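 The binding signal is a Z-score computed within each array. Data were drawn from 3228 arrays in the Consortium for Functional Glycomics database, restricted to those with a known protein sequence. Scores were averaged over arrays of the same protein sequence at different concentrations or buffers, and over linkers, and negative values can be taken as non-binding.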

[2] = biological target: Gal(b1-4)GlcNAc(b1-3)Gal(b1-4)GlcNAc(b1-2)Man(a1-3)[Gal(b1-4)GlcNAc(b1-3)Gal(b1-4)GlcNAc(b1-2)Man(a1-6)]Man(b1-4)GlcNAc(b1-4)GlcNAc
How it was run: as §1

[3] = biological target: Gal(b1-4)GlcNAc(b1-3)Gal(b1-4)GlcNAc(b1-2)Man(a1-3)[Gal(b1-4)GlcNAc(b1-3)Gal(b1-4)GlcNAc(b1-2)Man(a1-6)]Man(b1-4)GlcNAc(b1-4)[Fuc(a1-6)]GlcNAc
How it was run: as §1

[4] = biological target: Gal(b1-4)GlcNAc(b1-3)Gal(b1-4)GlcNAc(b1-2)[Gal(b1-4)GlcNAc(b1-3)Gal(b1-4)GlcNAc(b1-6)]Man(a1-6)[Gal(b1-4)GlcNAc(b1-3)Gal(b1-4)GlcNAc(b1-2)Man(a1-3)]Man(b1-4)GlcNAc(b1-4)GlcNAc
How it was run: as §1

[5] = biological target: Gal(b1-4)GlcNAc(b1-3)Gal(b1-4)GlcNAc(b1-2)[Gal(b1-4)GlcNAc(b1-3)Gal(b1-4)GlcNAc(b1-6)]Man(a1-6)[Gal(b1-4)GlcNAc(b1-3)Gal(b1-4)GlcNAc(b1-2)Man(a1-3)]Man(b1-4)GlcNAc(b1-4)[Fuc(a1-6)]GlcNAc
How it was run: as §1

[6] = biological target: Gal(b1-4)GlcNAc(b1-3)Gal(b1-4)GlcNAc(b1-3)Gal(b1-4)GlcNAc
How it was run: as §1

[7] = biological target: Gal(b1-4)GlcNAc(b1-3)Gal(b1-4)GlcNAc(b1-3)Gal(b1-4)GlcNAc(b1-2)Man(a1-3)[Gal(b1-4)GlcNAc(b1-3)Gal(b1-4)GlcNAc(b1-3)Gal(b1-4)GlcNAc(b1-2)Man(a1-6)]Man(b1-4)GlcNAc(b1-4)GlcNAc
How it was run: as §1

[8] = biological target: Gal(b1-4)GlcNAc(b1-3)Gal(b1-4)GlcNAc(b1-3)Gal(b1-4)GlcNAc(b1-2)Man(a1-3)[Gal(b1-4)GlcNAc(b1-3)Gal(b1-4)GlcNAc(b1-3)Gal(b1-4)GlcNAc(b1-2)Man(a1-6)]Man(b1-4)GlcNAc(b1-4)[Fuc(a1-6)]GlcNAc
How it was run: as §1

[9] = biological target: Gal(b1-4)GlcNAc(b1-3)Gal(b1-4)GlcNAc(b1-3)Gal(b1-4)GlcNAc(b1-2)[Gal(b1-4)GlcNAc(b1-3)Gal(b1-4)GlcNAc(b1-3)Gal(b1-4)GlcNAc(b1-6)]Man(a1-6)[Gal(b1-4)GlcNAc(b1-3)Gal(b1-4)GlcNAc(b1-3)Gal(b1-4)GlcNAc(b1-2)Man(a1-3)]Man(b1-4)GlcNAc(b1-4)[Fuc(a1-6)]GlcNAc
How it was run: as §1

[10] = biological target: Gal(b1-4)GlcNAc(b1-3)Gal(b1-4)GlcNAc(b1-3)Gal(b1-4)GlcNAc(b1-3)Gal(b1-4)GlcNAc(b1-2)Man(a1-3)[Gal(b1-4)GlcNAc(b1-3)Gal(b1-4)GlcNAc(b1-3)Gal(b1-4)GlcNAc(b1-3)Gal(b1-4)GlcNAc(b1-2)Man(a1-6)]Man(b1-4)GlcNAc(b1-4)GlcNAc
How it was run: as §1

[11] = biological target: Gal(b1-4)GlcNAc(b1-3)Gal(b1-4)GlcNAc(b1-3)Gal(b1-4)GlcNAc(b1-3)Gal(b1-4)GlcNAc(b1-2)Man(a1-3)[Gal(b1-4)GlcNAc(b1-3)Gal(b1-4)GlcNAc(b1-3)Gal(b1-4)GlcNAc(b1-3)Gal(b1-4)GlcNAc(b1-2)Man(a1-6)]Man(b1-4)GlcNAc(b1-4)[Fuc(a1-6)]GlcNAc
How it was run: as §1

[12] = biological target: Gal(b1-4)GlcNAc(b1-3)Gal(b1-4)GlcNAc(b1-3)Gal(b1-4)GlcNAc(b1-3)Gal(b1-4)GlcNAc(b1-2)[Gal(b1-4)GlcNAc(b1-3)Gal(b1-4)GlcNAc(b1-3)Gal(b1-4)GlcNAc(b1-3)Gal(b1-4)GlcNAc(b1-6)]Man(a1-6)[Gal(b1-4)GlcNAc(b1-3)Gal(b1-4)GlcNAc(b1-3)Gal(b1-4)GlcNAc(b1-3)Gal(b1-4)GlcNAc(b1-2)Man(a1-3)]Man(b1-4)GlcNAc(b1-4)[Fuc(a1-6)]GlcNAc
How it was run: as §1

[13] = biological target: Gal(b1-4)GlcNAc(b1-3)Gal(b1-4)GlcNAc(b1-3)Gal(b1-4)GlcNAc(b1-3)Gal(b1-4)GlcNAc(b1-3)Gal(b1-4)GlcNAc(b1-2)Man(a1-3)[Gal(b1-4)GlcNAc(b1-3)Gal(b1-4)GlcNAc(b1-3)Gal(b1-4)GlcNAc(b1-3)Gal(b1-4)GlcNAc(b1-3)Gal(b1-4)GlcNAc(b1-2)Man(a1-6)]Man(b1-4)GlcNAc(b1-4)GlcNAc
How it was run: as §1

[14] = biological target: Gal(b1-4)GlcNAc(b1-3)Gal(b1-4)GlcNAc(b1-3)Gal(b1-4)GlcNAc(b1-3)Gal(b1-4)GlcNAc(b1-3)Gal(b1-4)GlcNAc(b1-2)Man(a1-3)[Gal(b1-4)GlcNAc(b1-3)Gal(b1-4)GlcNAc(b1-3)Gal(b1-4)GlcNAc(b1-3)Gal(b1-4)GlcNAc(b1-3)Gal(b1-4)GlcNAc(b1-2)Man(a1-6)]Man(b1-4)GlcNAc(b1-4)[Fuc(a1-6)]GlcNAc
How it was run: as §1

[15] = biological target: Gal(b1-4)GlcNAc(b1-3)Gal(b1-4)GlcNAc(b1-3)Gal(b1-4)GlcNAc(b1-3)Gal(b1-4)GlcNAc(b1-3)Gal(b1-4)GlcNAc(b1-2)[Gal(b1-4)GlcNAc(b1-3)Gal(b1-4)GlcNAc(b1-3)Gal(b1-4)GlcNAc(b1-3)Gal(b1-4)GlcNAc(b1-3)Gal(b1-4)GlcNAc(b1-6)]Man(a1-6)[Gal(b1-4)GlcNAc(b1-3)Gal(b1-4)GlcNAc(b1-3)Gal(b1-4)GlcNAc(b1-3)Gal(b1-4)GlcNAc(b1-3)Gal(b1-4)GlcNAc(b1-2)Man(a1-3)]Man(b1-4)GlcNAc(b1-4)[Fuc(a1-6)]GlcNAc
How it was run: as §1

[16] = biological target: Gal(b1-4)GlcNAc(b1-3)Gal(b1-4)GlcNAc(b1-3)Gal(b1-4)GlcNAc(b1-3)Gal(b1-4)GlcNAc(b1-3)Gal(b1-4)GlcNAc(b1-3)Gal(b1-4)GlcNAc(b1-2)Man(a1-3)[Gal(b1-4)GlcNAc(b1-3)Gal(b1-4)GlcNAc(b1-3)Gal(b1-4)GlcNAc(b1-3)Gal(b1-4)GlcNAc(b1-3)Gal(b1-4)GlcNAc(b1-3)Gal(b1-4)GlcNAc(b1-2)Man(a1-6)]Man(b1-4)GlcNAc(b1-4)GlcNAc
How it was run: as §1

[17] = biological target: Gal(b1-4)GlcNAc(b1-3)Gal(b1-4)GlcNAc(b1-3)GalNAc
How it was run: as §1

[18] = biological target: Gal(b1-4)GlcNAc(b1-3)Gal(b1-4)GlcNAc(b1-3)[Gal(b1-4)GlcNAc(b1-3)Gal(b1-4)GlcNAc(b1-6)]GalNAc
How it was run: as §1

[19] = biological target: Gal(b1-4)GlcNAc(b1-3)Gal(b1-4)GlcNAc(b1-6)[Gal(b1-3)]GalNAc
How it was run: as §1

B1: CSA (Cytisus scoparius), P29257 (protein)
chain: SEELSFSFTKFKTDQKNLILQRDALITPTGKLQLTTVENGKPAAYSLGRALYSTPIHIWDKSTGDEASFATFFSFVISDAPNPSTAATDGLAFFLAPADTQPQSAGGYLGLFEKDSSYNSSNQIVAVEFDTYYNSAWDPQTNPHIGIDVNTIKSKKVSSWGFKNGNVATVLITYQPSSKSLVASLVYPSGQTSDKTSYIISANVDLKATVPEWVRIGFSATTGQTDNYIETHDILSWSFKSKLPATKN
[1]
  glycan array binding signal (z-score): -0.137
[2]
  glycan array binding signal (z-score): 0.356
[3]
  glycan array binding signal (z-score): -0.047
[4]
  glycan array binding signal (z-score): -0.059
[5]
  glycan array binding signal (z-score): 0.259
[6]
  glycan array binding signal (z-score): -0.206
[7]
  glycan array binding signal (z-score): 0.488
[8]
  glycan array binding signal (z-score): 0.223
[9]
  glycan array binding signal (z-score): 0.479
[10]
  glycan array binding signal (z-score): 0.39
[11]
  glycan array binding signal (z-score): 0.228
[12]
  glycan array binding signal (z-score): 0.826
[13]
  glycan array binding signal (z-score): 0.143
[14]
  glycan array binding signal (z-score): 0.194
[15]
  glycan array binding signal (z-score): 0.764
[16]
  glycan array binding signal (z-score): 0.099
[17]
  glycan array binding signal (z-score): 0.306
[18]
  glycan array binding signal (z-score): 0.354
[19]
  glycan array binding signal (z-score): 0.159
